# Data from paper PMC5540273 (PLoS ONE, 2017).
# For some of these results: This list holds what a sample rich in strong results left over. This is a selection; strong and weak results do not stand in their true shares.
# Tests used:
# Settings in all cases: concentration: 1 μM,replicates: in singlicate; n = 1
# CSNK1D = system: CSNK1D
# CSNK1E = system: CSNK1E
# CSNK1G1 = system: CSNK1G1
# CSNK1G2 = system: CSNK1G2
# CSNK1G3 = system: CSNK1G3
# CSNK2A1 = system: CSNK2A1
# CSNK2A2 = system: CSNK2A2
# CTK = system: T1, CTK
# T1 construct: gene MATK
# DAPK1 = system: DAPK1
# DAPK2 = system: DAPK2
# 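Note: KINOMEscan kinase panel screen.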
SMILES,%Inh (CSNK1D),%Inh (CSNK1E),%Inh (CSNK1G1),%Inh (CSNK1G2),%Inh (CSNK1G3),%Inh (CSNK2A1),%Inh (CSNK2A2),%Inh (CTK),%Inh (DAPK1),%Inh (DAPK2)
Cc1ccc(C)c(Oc2nccc(-c3c(-c4ccc(F)cc4)ncn3C3CCNCC3)n2)c1.O=C(O)C(F)(F)F.O=C(O)C(F)(F)F.O=C(O)C(F)(F)F [SB-284852],95.2%,97%,97.6%,21%,29%,0%,1%,0%,0%,0%
O=C1NC(=O)C(c2ccc(Cl)cc2)=C1Nc1cccc(C(=O)O)c1 [SB-360737],15%,6%,0%,0%,0%,0%,0%,0%,0%,0%
CSc1ccc(NC2=C(c3cccc(Cl)c3)C(=O)NC2=O)cc1 [SB-341528],8%,0%,0%,0%,0%,0%,0%,22%,0%,0%
O=C(O)c1ccc(-c2nc(-c3ccc(F)cc3)c(-c3ccncc3)[nH]2)cc1 [SB-202620],29%,28%,0%,22%,0%,0%,18%,2%,5%,16%
CS(=O)(=O)c1ccccc1-c1nc(-c2ccc(F)cc2)c(-c2ccncc2)[nH]1 [SB-213663],74%,66%,0%,0%,0%,0%,0%,1%,11%,0%
O=C1NC(=O)C(c2ccc(Cl)cc2)=C1Nc1ccc(O)c(Cl)c1 [SB-405367],23%,0%,0%,11%,8%,3%,12%,45%,0%,13%
Cc1cc(C)cc(Oc2nccc(-c3c(-c4ccc(F)cc4)ncn3C3CCNCC3)n2)c1.O=C(O)C(F)(F)F.O=C(O)C(F)(F)F.O=C(O)C(F)(F)F [SB-284851],90.1%,70%,13%,39%,21%,0%,0%,0%,0%,22%
O=C1NC(=O)C(c2ccccc2Cl)=C1Nc1cccc(C(=O)O)c1 [SB-390526],36%,19%,29%,12%,12%,10%,7%,0%,0%,7%
COc1cccc(C2=C(Nc3ccc(SC)cc3)C(=O)NC2=O)c1 [SB-331032],0%,10%,0%,0%,2%,0%,5%,0%,0%,40%
O=C1NC(=O)C(c2ccc(Cl)cc2)=C1Nc1ccccc1 [SB-317661],0%,2%,7%,0%,0%,0%,0%,41%,0%,14%
O=C1NC(=O)C(c2ccccc2Cl)=C1Nc1ccccc1 [SB-376715],6%,0%,91.7%,0%,5%,0%,4%,0%,0%,9%
COc1ccc(C2=C(Nc3cccc(Cl)c3)C(=O)NC2=O)cc1 [SB-326892],0%,0%,0%,0%,22%,0%,16%,35%,69%,0%
O=C1NC(=O)C(c2ccccc2)=C1Nc1cc(Cl)c(O)c(Cl)c1 [SB-390530],24%,0%,8%,0%,0%,0%,3%,23%,2%,0%
O=C1NC(=O)C(c2ccccc2)=C1Nc1ccc(Cl)c(C(=O)O)c1 [SB-390532],0%,18%,0%,0%,5%,0%,18%,0%,0%,0%
O=C1NC(=O)C(c2ccc(Cl)cc2)=C1Nc1cccc(O)c1 [SB-333613],4%,0%,0%,4%,0%,0%,24%,31%,15%,13%
O=C1NC(=O)c2c1c(-c1ccccc1)cc1[nH]c3ccc(O)cc3c21,51%,50%,2%,62%,40%,79%,81%,8%,22%,2%
